Certain results were filed several times, with different values. They are shown here; other results are not. The source may hold further records. Results that share an entry appear to be repeats (runs, samples, wells or individuals).
Key:
human CCR8 (human) = human CCR8 (human) (UniProt P51685); experiment: flow cytometry, inhibition of hCCL1-AF647 (10 nM) binding to hCCR8-CHO cells
[1] = target: human CCR8 with a SNAP-tag at the N-terminus (human) (UniProt P51685); experiment: HTRF Tag-lite, inhibition of hCCL1-AF647 binding to SNAP-hCCR8 on HEK-293 cells

In the case of “murine anti-human CCR8 monoclonal antibody L263G8”, the IC50 (human CCR8 (human)) is reported as 0.4 µg/mL and 2.7 nM [columns of one line], the IC50 [1] is reported as 0.14 µg/mL and 0.96 nM [columns of one line] and the Ki [1] is reported as 0.07 µg/mL and 0.48 nM [columns of one line].

Reference: patent US20260132208A1
